Source: article PMC4336329 (PLoS ONE, 2015)
Among all 310,000 compounds or so, about 2,200 (0.71%) showed an effect of 50% or more. Effects have a minus sign here. The list shows a part of the results.

The molecules below were run against human ether-à-go-go-related gene (hERG) potassium channel (human, UniProt Q12809) (assay: primary screen, population patch clamp on CHO cells stably expressing hERG).
human ether-à-go-go-related gene (hERG) potassium channel, sequence (Q12809 whole entry, looked up): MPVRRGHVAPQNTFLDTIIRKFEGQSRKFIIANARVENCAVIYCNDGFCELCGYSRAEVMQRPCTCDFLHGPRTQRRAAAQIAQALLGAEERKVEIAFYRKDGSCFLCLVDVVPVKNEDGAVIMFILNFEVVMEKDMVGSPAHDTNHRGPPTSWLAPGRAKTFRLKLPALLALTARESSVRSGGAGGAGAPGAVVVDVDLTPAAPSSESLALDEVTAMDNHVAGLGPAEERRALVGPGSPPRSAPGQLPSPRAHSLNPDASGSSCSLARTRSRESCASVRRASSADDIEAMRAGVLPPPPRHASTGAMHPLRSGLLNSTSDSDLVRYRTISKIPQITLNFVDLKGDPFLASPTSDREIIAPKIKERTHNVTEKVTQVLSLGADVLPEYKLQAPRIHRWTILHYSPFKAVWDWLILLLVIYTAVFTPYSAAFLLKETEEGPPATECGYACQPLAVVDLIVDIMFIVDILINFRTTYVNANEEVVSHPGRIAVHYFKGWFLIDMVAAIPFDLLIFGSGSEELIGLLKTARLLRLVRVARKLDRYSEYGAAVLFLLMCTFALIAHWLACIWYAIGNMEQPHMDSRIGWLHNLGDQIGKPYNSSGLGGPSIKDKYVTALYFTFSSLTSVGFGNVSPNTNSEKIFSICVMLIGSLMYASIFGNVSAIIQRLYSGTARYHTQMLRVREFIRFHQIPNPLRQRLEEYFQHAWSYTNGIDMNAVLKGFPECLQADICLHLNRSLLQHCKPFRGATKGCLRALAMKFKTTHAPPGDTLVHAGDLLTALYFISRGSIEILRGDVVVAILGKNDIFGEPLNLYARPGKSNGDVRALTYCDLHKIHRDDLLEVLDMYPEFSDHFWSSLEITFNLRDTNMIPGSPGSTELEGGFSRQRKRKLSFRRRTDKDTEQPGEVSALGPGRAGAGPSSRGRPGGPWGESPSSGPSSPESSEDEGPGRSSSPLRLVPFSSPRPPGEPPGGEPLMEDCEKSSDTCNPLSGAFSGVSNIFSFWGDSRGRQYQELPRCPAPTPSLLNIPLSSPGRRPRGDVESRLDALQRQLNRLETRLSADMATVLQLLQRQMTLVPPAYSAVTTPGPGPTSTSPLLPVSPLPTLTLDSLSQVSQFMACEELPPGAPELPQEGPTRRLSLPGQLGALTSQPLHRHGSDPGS
In the case of CN(C)c1ccc(/C=C2\SC(=O)N(CC(O)Cn3c4ccccc4c4ccccc43)C2=O)cc1 (centres unmarked), the “hERG current change (%, negative = inhibition) at 1uM” value is reported as 10.1%. With Cc1ccccc1NCCC(=O)Nc1ccc(F)cc1 the “hERG current change (%, negative = inhibition) at 1uM” value was 4.12%. CCCNC(=O)C1CCN(S(=O)(=O)c2ccc3[nH]c(=O)ccc3c2)CC1 was tested, and the “hERG current change (%, negative = inhibition) at 1uM” value was 11.4%. In the case of O=S(=O)(c1ccc2c(c1)OCCCO2)N1CCNCC1, the “hERG current change (%, negative = inhibition) at 1uM” value is reported as 4.19%. With Cc1cccc(N2C(=O)CC(N3CCC(c4nc5ccccc5[nH]4)CC3)C2=O)c1 (centres unmarked) the “hERG current change (%, negative = inhibition) at 1uM” value was 7.14%. In the case of COc1ccc([C@H]2/C=C\CN(S(C)(=O)=O)[C@@H](C)C(=O)N2Cc2ccc(F)cc2)cc1, the “hERG current change (%, negative = inhibition) at 1uM” value is reported as 6.06%. For Cn1c(=O)c2ccccc2n(Cc2cccc(F)c2)c1=O, the “hERG current change (%, negative = inhibition) at 1uM” value was 12.1%. With CCn1ncc(CN2CCCC(C(=O)c3cccc(OC(C)C)c3)C2)c1C (centres unmarked) the “hERG current change (%, negative = inhibition) at 1uM” value was 8.61%. With COc1ccc(C2c3c(oc4ccccc4c3=O)C(=O)N2CCCN2CCOCC2)cc1 (centres unmarked) the “hERG current change (%, negative = inhibition) at 1uM” value was 7.58%. CCOc1ccc(OCC(O)CN2CCc3ccccc3C2)cc1.Cl (centres unmarked) was tested, and the “hERG current change (%, negative = inhibition) at 1uM” value was -45.1%. For CC1=NN(C(=O)c2c(Br)cnn2C)C(O)(C(F)(F)F)C1 (centres unmarked), the “hERG current change (%, negative = inhibition) at 1uM” value was 0.959%. With Cc1ccc(Sc2nc(-c3ccccc3)nnc2C(F)(F)F)cc1 the “hERG current change (%, negative = inhibition) at 1uM” value was 11.8%. COc1ccc(C)cc1N(CC(=O)N1CCCCCC1)S(C)(=O)=O was tested, and the “hERG current change (%, negative = inhibition) at 1uM” value was 14.5%. COc1ccc2[nH]cc(CCNS(=O)(=O)c3ccc(F)cc3)c2c1 was tested, and the “hERG current change (%, negative = inhibition) at 1uM” value was 9.73%. For Cc1sc2nc(COC(=O)C(NC(=O)c3ccc(Cl)cc3Cl)C(C)C)[nH]c(=O)c2c1C (centres unmarked), the “hERG current change (%, negative = inhibition) at 1uM” value was 3.57%. In the case of CC1CCCCC1NC(=S)Nc1ccc(SC(F)F)cc1 (centres unmarked), the “hERG current change (%, negative = inhibition) at 1uM” value is reported as -0.822%. For COc1ccccc1Nc1nc(NCc2ccco2)nc(N)c1[N+](=O)[O-], the “hERG current change (%, negative = inhibition) at 1uM” value was 13.1%. With CN(C)S(=O)(=O)c1cccc(NC(=O)C2Cc3ccccc3CN2C(=O)c2ccccc2)c1 (centres unmarked) the “hERG current change (%, negative = inhibition) at 1uM” value was 15.3%. With O=C(c1cc(COc2ccc3ncccc3c2)on1)N1CCC[C@H]1CO the “hERG current change (%, negative = inhibition) at 1uM” value was 11.4%. CCOC(=O)C1CCCN(C(=O)c2ccc(NC(=O)CC3SC(N4CCCC4)=NC3=O)cc2)C1 (centres unmarked) was tested, and the “hERG current change (%, negative = inhibition) at 1uM” value was 1.52%. In the case of O=C(CCN1C(=O)/C(=C/c2ccc(F)cc2)SC1=S)Nc1cccnc1, the “hERG current change (%, negative = inhibition) at 1uM” value is reported as 11.2%. COc1ccc(CCNC(=O)C2CCCN(S(=O)(=O)c3ccc(F)cc3)C2)cc1 (centres unmarked) was tested, and the “hERG current change (%, negative = inhibition) at 1uM” value was 12.8%. With COc1ccc(N2C(=O)C3CC(C)=C(C)CC3C2=O)c(OC)c1 (centres unmarked) the “hERG current change (%, negative = inhibition) at 1uM” value was 14.6%. O=C(CCC1CCCN(C(=O)CC2=CCCCC2)C1)N1CCN(c2ccccn2)CC1 (centres unmarked) was tested, and the “hERG current change (%, negative = inhibition) at 1uM” value was 17.7%. With O=C(NN=C1C2CC3CC(C2)CC1C3)c1cc(Cl)ccc1O the “hERG current change (%, negative = inhibition) at 1uM” value was -4.53%. With COc1ccc(-n2c(Cc3cccn3C)nnc2SCC(=O)Nc2ccc(C(C)=O)cc2)cc1 the “hERG current change (%, negative = inhibition) at 1uM” value was 7.92%. With Cc1cc2c(cc1C)C(c1ccccc1F)CC(=O)N2 (centres unmarked) the “hERG current change (%, negative = inhibition) at 1uM” value was 15.6%. O=C(/C=C/c1cccs1)Nc1ccc([N+](=O)[O-])cc1 was tested, and the “hERG current change (%, negative = inhibition) at 1uM” value was 10.4%. For COc1ccc(Br)cc1C(=O)NC(=S)Nc1ccc(Cl)c(C(=O)O)c1, the “hERG current change (%, negative = inhibition) at 1uM” value was 18%. For Cc1ccc(C)c2nc(N3CCCC3)c(C#N)cc12, the “hERG current change (%, negative = inhibition) at 1uM” value was 8.96%. With CC1(C)CC(=O)C2=C(C1)N(Cc1ccc(F)cc1)C(=O)C2(NC(=O)c1cccnc1)C(F)(F)F (centres unmarked) the “hERG current change (%, negative = inhibition) at 1uM” value was 5.07%. In the case of Cc1cccc(N(Cc2cc(=O)[nH]c3ccccc23)C(=O)C(C)C)c1, the “hERG current change (%, negative = inhibition) at 1uM” value is reported as 10.3%. With Cc1ccc(S(=O)(=O)CC(=O)Nc2ccccn2)cc1 the “hERG current change (%, negative = inhibition) at 1uM” value was 13.8%. In the case of CCOC(=O)N1CCN(C(=O)CCSCCc2ccncc2)CC1, the “hERG current change (%, negative = inhibition) at 1uM” value is reported as 7.19%. In the case of COCCNC(=O)c1ccccc1NC(=O)c1ccccc1SC, the “hERG current change (%, negative = inhibition) at 1uM” value is reported as 7.19%. For Cn1cc(S(=O)(=O)CC(=O)N2CCCc3ccccc32)c2ccccc21, the “hERG current change (%, negative = inhibition) at 1uM” value was 2.59%. In the case of CC(C)NOC(=O)c1ccc(Cl)cc1, the “hERG current change (%, negative = inhibition) at 1uM” value is reported as -12.8%. Nc1ccc(C(=O)O)cc1S(=O)(=O)O was tested, and the “hERG current change (%, negative = inhibition) at 1uM” value was 9.19%. With Oc1c(Br)cc(Br)cc1C=Nc1ccc2c(c1)OCCO2 the “hERG current change (%, negative = inhibition) at 1uM” value was 12.2%. With Cc1nn(C)cc1CNC(=O)c1cnn2c(C(F)F)cc(C3CC3)nc12 the “hERG current change (%, negative = inhibition) at 1uM” value was 2.77%. For O=C1/C(=C/c2ccccc2)NC(=S)N1C(c1ccccc1)c1ccccc1, the “hERG current change (%, negative = inhibition) at 1uM” value was 7.93%. O=C(Nc1ccccc1)O/N=C/c1ccccc1Cl was tested, and the “hERG current change (%, negative = inhibition) at 1uM” value was 8.41%. Cn1cnnc1Sc1cc(N2CCNCC2)ccc1[N+](=O)[O-] was tested, and the “hERG current change (%, negative = inhibition) at 1uM” value was 17.5%. For COCc1cc(N2CCCC2)nc(-c2ccccc2)n1, the “hERG current change (%, negative = inhibition) at 1uM” value was 8.37%. For CCOc1ccccc1C1NC(=O)NC(C)=C1C(=O)OCc1ccco1 (centres unmarked), the “hERG current change (%, negative = inhibition) at 1uM” value was 7.29%. For COc1ccc2nc(NC(=O)C34CC5CC(CC(NC(C)=O)(C5)C3)C4)sc2c1, the “hERG current change (%, negative = inhibition) at 1uM” value was 14.2%. For C=CCn1c(SCC(=O)OCC)nc2cc(C(=O)NCc3ccco3)ccc2c1=O, the “hERG current change (%, negative = inhibition) at 1uM” value was -9.92%. COc1cccc(C(=O)Nc2ccc(C3CC3(Cl)Cl)cc2)c1 (centres unmarked) was tested, and the “hERG current change (%, negative = inhibition) at 1uM” value was 6.67%. In the case of COC(=O)c1ccc(-c2noc(CN(C)Cc3ccncc3C)n2)cc1, the “hERG current change (%, negative = inhibition) at 1uM” value is reported as -2.71%. With COc1ccc(C(=O)NCC(=O)OCc2cccc(Br)c2)cc1 the “hERG current change (%, negative = inhibition) at 1uM” value was 13.5%. CC(=O)N1c2c(cc(Br)cc2S(=O)(=O)N2CCN(c3ccccc3F)CC2)CC1C (centres unmarked) was tested, and the “hERG current change (%, negative = inhibition) at 1uM” value was 11.5%. In the case of CCOc1ccc(NC(=O)C(C)Oc2ccccc2C(=O)Nc2ccc(C)c(Cl)c2)cc1 (centres unmarked), the “hERG current change (%, negative = inhibition) at 1uM” value is reported as 1.97%. Cc1ccc(S(=O)(=O)N2CCN(C(=O)CSc3nnc(C)c(=O)[nH]3)CC2)cc1 was tested, and the “hERG current change (%, negative = inhibition) at 1uM” value was 14.5%. With COc1ccc(-c2csc(NC(=O)COC(=O)c3ccco3)n2)cc1 the “hERG current change (%, negative = inhibition) at 1uM” value was 10.5%. CC(OC(=O)c1cc2sccc2n1C)C(=O)NCCc1ccccc1 (centres unmarked) was tested, and the “hERG current change (%, negative = inhibition) at 1uM” value was 5.48%. In the case of CCOc1ccc2nc(COC(=O)c3ccco3)c(C(C)=O)[n+]([O-])c2c1, the “hERG current change (%, negative = inhibition) at 1uM” value is reported as 6.45%.
